Results from PubChem BioAssay AID504332 (National Center for Advancing Translational Sciences (NCATS), 2011).
The campaign covered roughly 350,000 compounds. About 31,000 (8.9%) were called active. Inconclusive results, whose numbers are uncertain, are shown with a selection of clear calls. Calls follow the shape of the dose curve; as a rule, active = well fitted inhibition curve with a large enough effect; inconclusive = small, poorly fitted or top-dose-only effect; inactive = no such curve, though single readings can be large or run the other way. Potencies beside an inconclusive call are fits to weak or partial responses and may not hold up.

Target: Histone-lysine N-methyltransferase EHMT2 (Homo sapiens) (UniProt Q96KQ7)
Assay: qHTS Assay for Inhibitors of Histone Lysine Methyltransferase G9a; also: nearly all actives have a fitted effect of over 75% in size
Conditions: G9a H3K9 monomethylation, AlphaScreen, 2 h; activity, negative = inhibition: at 59 µM (top of the series) unless noted
How it was run: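 G9a (20 nM) was preincubated 15 min with compound, then reacted 2 h at room temperature with 500 nM biotin-H3K9 peptide and 20 µM SAM. Monomethyl-H3K9 detected by AlphaScreen using anti-H3K9me1 antibody.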
% is scaled to controls: 0 for no effect and ±100 for the full control effect; potency is read from the fitted curve at half-maximal effect; tags tell the direction and shape of the fitted curve.

Chain of UniProt Q96KQ7 (Q96KQ7 whole entry, looked up): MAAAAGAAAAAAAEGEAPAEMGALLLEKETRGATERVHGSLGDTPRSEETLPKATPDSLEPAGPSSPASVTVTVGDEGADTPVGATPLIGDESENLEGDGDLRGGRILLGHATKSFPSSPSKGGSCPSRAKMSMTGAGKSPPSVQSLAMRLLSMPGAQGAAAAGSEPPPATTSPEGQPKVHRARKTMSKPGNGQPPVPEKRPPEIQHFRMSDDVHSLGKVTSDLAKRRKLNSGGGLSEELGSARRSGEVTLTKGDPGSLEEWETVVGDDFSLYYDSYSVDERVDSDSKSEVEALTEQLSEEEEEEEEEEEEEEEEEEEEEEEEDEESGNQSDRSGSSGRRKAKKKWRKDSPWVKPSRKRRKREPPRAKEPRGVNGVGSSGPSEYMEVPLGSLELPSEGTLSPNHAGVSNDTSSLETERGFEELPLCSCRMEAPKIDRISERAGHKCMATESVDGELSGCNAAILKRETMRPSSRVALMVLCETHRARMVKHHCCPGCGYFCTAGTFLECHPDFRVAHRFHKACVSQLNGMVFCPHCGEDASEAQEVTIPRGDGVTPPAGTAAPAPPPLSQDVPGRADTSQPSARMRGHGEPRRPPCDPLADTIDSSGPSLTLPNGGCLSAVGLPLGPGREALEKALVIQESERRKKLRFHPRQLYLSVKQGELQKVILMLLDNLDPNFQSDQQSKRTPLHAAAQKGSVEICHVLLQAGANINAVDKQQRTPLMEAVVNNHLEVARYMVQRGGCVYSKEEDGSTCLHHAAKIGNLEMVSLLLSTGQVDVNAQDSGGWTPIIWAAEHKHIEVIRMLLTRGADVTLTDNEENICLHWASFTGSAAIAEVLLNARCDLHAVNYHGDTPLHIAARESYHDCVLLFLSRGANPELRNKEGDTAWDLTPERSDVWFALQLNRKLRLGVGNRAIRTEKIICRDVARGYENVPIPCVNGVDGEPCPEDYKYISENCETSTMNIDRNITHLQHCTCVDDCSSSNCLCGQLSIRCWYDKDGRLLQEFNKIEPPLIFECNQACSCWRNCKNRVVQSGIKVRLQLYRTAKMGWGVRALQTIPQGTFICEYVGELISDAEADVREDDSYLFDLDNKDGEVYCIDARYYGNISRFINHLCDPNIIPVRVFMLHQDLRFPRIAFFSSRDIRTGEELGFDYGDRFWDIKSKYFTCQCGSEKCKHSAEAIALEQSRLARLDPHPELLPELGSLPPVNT

Which Potency does the source give for `Clc1ccc(OCCCCSc2ncccn2)cc1` here?
Its Potency is inconclusive: 7.94 µM [inhibitor, full curve, poor fit].

How did the Potency turn out when `Cc1nc2ccc(NC3=NCCCCC3)cc2s1` was run?
Its Potency is active: 5.62 µM.

Which Potency does the source give for `CC(C)CNC(=S)NC(=O)c1ccc(Cl)cc1` here?
Its Potency is inconclusive: 89.1 µM [inhibitor, single point].

For `COc1ccc(N2CCN(CCCNC(=S)Nc3c(C)cccc3C)CC2)cc1`, which Potency is on record?
Its Potency is inconclusive: 63.1 µM [inhibitor, single point].

With `COc1ccccc1-c1cc(N)n[nH]1` as the molecule, how does the Potency read?
Its Potency is “inactive”.

`COc1cccc(C(=O)Oc2cc(-c3ccccc3)no2)c1` was tested. Which Potency did it give?
Its Potency is inconclusive: 31.6 µM [inhibitor, single point].

How did the Potency turn out when `CC(CN1CCCCC1)OC(=O)c1ccco1` (centres undefined) was run?
Its Potency is “inactive”.

For `COc1ccc(-n2c(COc3ccc4ccccc4c3)nnc2SCC(=O)NCc2ccco2)cc1`, which Potency is on record?
The Potency was inconclusive: 56.2 µM [inhibitor, partial curve, poor fit].

Which Potency does the source give for `COc1cccc2cc(-c3cc(=O)oc4cc(C)c(OCC(C)=O)cc34)oc12` here?
The Potency was “inactive”.

Which Potency does the source give for `O=C(CN1CCN(CC(=O)c2ccc(F)cc2)CC1)Nc1ccccc1Cl` here?
The Potency was active: 7.08 µM.

With `O=C(/C=C/c1ccccc1)OCc1ccccc1` as the molecule, how does the Potency read?
The Potency was “inactive”.

With `COc1ccc(Nc2cc(C(=O)NCCCN3CCOCC3)c3ccccc3n2)cc1` as the molecule, how does the Potency read?
The Potency was “inactive”.

Which Potency does the source give for `O=C(CN1CCN(Cc2ccc3c(c2)OCO3)CC1)N1c2ccccc2Sc2ccccc21` here?
Its Potency is inconclusive: 1.58 µM [inhibitor, partial curve, poor fit].

Which Potency does the source give for `Cc1cc(C)c(NC(=O)CSc2nc3c([nH]c4ccccc43)c(=O)n2C)c(C)c1` here?
The Potency was “inactive”.

Which Potency does the source give for `COc1cccc(C(=O)NCC(=O)N2CCC3(CC2)NCCc2[nH]cnc23)c1OC` here?
The Potency was inconclusive: 89.1 µM [inhibitor, single point].

How did the Potency turn out when `C=CCN1C(=O)C(CC(=O)Nc2ccc(OCCC)cc2)N(CCCN2CCN(Cc3ccccc3)CC2)C1=S` (centres undefined) was run?
The Potency was inconclusive: 20 µM [inhibitor, single point].

How did the Potency turn out when `CCC(=O)N1c2ccc(C)cc2C2=NNC(=S)NC21O` (centres undefined) was run?
Its Potency is “inactive”.

How did the Potency turn out when `O=C(Nc1sc2c(c1C(=O)O)CCCCC2)c1cccs1` was run?
The Potency was inconclusive: 89.1 µM [inhibitor, single point].

How did the Potency turn out when `O=C(CN1CCN(C(=O)c2ccco2)CC1)Nc1cccc(S(=O)(=O)N2CCCC2)c1` was run?
Its Potency is inconclusive: 39.8 µM [inhibitor, single point].

For `Cc1ccsc1CN(C)C(=O)CN1C(=O)NC2(CCCCC2C)C1=O` (centres undefined), which Potency is on record?
The Potency was inconclusive: 1.12 µM [inhibitor, single point].

`NNc1nc2sc3c(c2c(=O)n1-c1ccccc1)CCCC3` was tested. Which Potency did it give?
Its Potency is active: 50.1 µM.

With `CCOc1cc(C(c2c(C)[nH][nH]c2=O)c2c(C)[nH][nH]c2=O)ccc1OS(=O)(=O)c1ccc(C)cc1` as the molecule, how does the Potency read?
The Potency was inconclusive: 1.58 µM [inhibitor, single point].

With `CCOc1ccc(NC(=O)CN(C)C(=O)c2ccc(-c3ccc(C(C)=O)cc3)o2)cc1OCC` as the molecule, how does the activity, negative = inhibition read?
Its activity, negative = inhibition is inactive: -9.07% [at 0.501 µM].

Which Potency does the source give for `CN(CC(CC(=O)Nc1nncs1)c1ccccc1)S(=O)(=O)c1ccccc1` (centres undefined) here?
The Potency was inconclusive: 56.2 µM [inhibitor, partial curve, poor fit].

Which Potency does the source give for `CCCCNC(=O)CN1CCN(c2ncc(NC(=O)c3ccc(Cl)cc3)cc2C(=O)O)CC1` here?
The Potency was inconclusive: 35.5 µM [inhibitor, single point].

Which Potency does the source give for `CC(C)C[C@H](NC(=O)[C@H](Cc1ccccc1)NC(=O)CNC(=O)CNC(=O)[C@@H](N)Cc1ccc(O)cc1)C(=O)N[C@@H](CCCN=C(N)N)C(=O)N[C@@H](CCCN=C(N)N)C(=O)N[C@@H](CCC(N)=O)C(=O)N[C@@H](Cc1ccccc1)C(=O)N[C@@H](CCCCN)C(=O)N[C@H](C(=O)N[C@H](C(=O)N[C@H](C(=O)O)[C@@H](C)O)C(C)C)C(C)C` here?
Its Potency is “inactive”.

How did the activity, negative = inhibition turn out when `O=C(O)c1ccc(N=N/C(=N\Nc2ccc(C(=O)O)cc2)c2ccccc2)cc1` was run?
Its activity, negative = inhibition is inconclusive: -57.9% [inhibitor] [at 2.33 µM].

How did the Potency turn out when `Nc1ccc2nc(Cc3ccccc3)[nH]c2c1` was run?
Its Potency is inconclusive: 11.2 µM [inhibitor, partial curve, poor fit].

Which Potency does the source give for `COc1cccc2c1cc1c(=O)n(CC(=O)N3CCC(C)CC3)nc(C)n12` here?
The Potency was “inactive”.

Which Potency does the source give for `CCc1ccc(-c2nc(CS(=O)CC(=O)NCCCN3CCOCC3)c(C)o2)cc1` (centres undefined) here?
Its Potency is inconclusive: 50.1 µM [inhibitor, single point].

`CCOc1ccc(-c2nc(C#N)c(N3CCN(CC)CC3)o2)cc1` was tested. Which Potency did it give?
Its Potency is active: 50.1 µM.

For `O=C1CCC/C1=C\Nc1ccc(Cl)c([N+](=O)[O-])c1`, which Potency is on record?
Its Potency is inconclusive: 50.1 µM [inhibitor, partial curve, poor fit].

With `CCS(=O)(=O)N1CCN(c2ccccc2F)CC1` as the molecule, how does the Potency read?
The Potency was inconclusive: 39.8 µM [inhibitor, single point].

With `N#CC(C#SN)=C1CCCCC1` as the molecule, how does the Potency read?
Its Potency is inconclusive: 11.2 µM [inhibitor, partial curve, poor fit].

How did the Potency turn out when `CN(C)S(=O)(=O)c1cccc(NC(=O)COC(=O)/C=C/c2ccco2)c1` was run?
Its Potency is inconclusive: 22.4 µM [inhibitor, single point].

Which Potency does the source give for `Cc1cccc(N2CCN(C(=O)c3cc4ccc5cccnc5c4[nH]3)CC2C)c1` (centres undefined) here?
The Potency was inconclusive: 10 µM [inhibitor, partial curve].

How did the Potency turn out when `CCC(=O)Nc1sc2c(c1C(=O)Nc1ccc(Br)cc1)CCCCC2` was run?
Its Potency is inconclusive: 28.2 µM [inhibitor, single point].

How did the Potency turn out when `Cc1ccc(S(=O)(=O)NC(=S)NC2CCCCC2)cc1` was run?
Its Potency is inconclusive: 35.5 µM [inhibitor, full curve].

How did the Potency turn out when `Cc1nc2c(C)cccn2c1/C(O)=C1\C(=O)C(=O)N(CCN2CCOCC2)C1c1cccs1` (centres undefined) was run?
Its Potency is active: 20 µM.

Which Potency does the source give for `Cc1cc(C)c(NC(=O)CN2CCN(c3ccccn3)CC2)c(C)c1` here?
Its Potency is inconclusive: 79.4 µM [inhibitor, single point].

For `CCOc1cc(C)c(S(=O)(=O)NCc2ccccn2)cc1C`, which Potency is on record?
Its Potency is “inactive”.

`Oc1[nH]c2ccccc2c1N=Nc1ccc(F)cc1` was tested. Which Potency did it give?
Its Potency is inconclusive: 31.6 µM [inhibitor, single point].

How did the activity, negative = inhibition turn out when `COc1ccccc1NC(=O)C(C)N1C(=O)C2CCCCC2C1=O` (centres undefined) was run?
Its activity, negative = inhibition is inactive: 14.9% [at 0.501 µM].

Which Potency does the source give for `CCCc1sc(N)nc1-c1ccc(Cl)cc1` here?
Its Potency is active: 44.7 µM.

For `Cc1ccc(S(=O)(=O)NN=C2C3CC4CC(C3)CC2C4)cc1[N+](=O)[O-]`, which Potency is on record?
Its Potency is active: 22.4 µM.

Which Potency does the source give for `CN1CCN(c2ccc(Cl)cc2NS(=O)(=O)c2ccccc2Cl)CC1` here?
Its Potency is inconclusive: 11.2 µM [inhibitor, partial curve, poor fit].

`COc1ccc(N2CCN(C(=O)c3oc4ccccc4c3C)CC2)cc1` was tested. Which Potency did it give?
The Potency was active: 35.5 µM.

Which Potency does the source give for `Cc1ccc(NC(=O)CSc2nc3[nH]ncc3c(=O)[nH]2)c(C)c1` here?
Its Potency is “inactive”.

With `N#Cc1c(NC(=O)C2C3C=CC(C3)C2C(=O)O)sc2c1CCCCC2` (centres undefined) as the molecule, how does the Potency read?
Its Potency is inconclusive: 50.1 µM [inhibitor, partial curve, poor fit].

For `CCS(=O)(=O)N1CCc2cc(C(=O)NCc3ccccc3Cl)ccc21`, which Potency is on record?
Its Potency is inconclusive: 39.8 µM [inhibitor, partial curve, poor fit].

For `CCCNC(=S)N1CCC(c2nc3cc(C)c(C)cc3[nH]2)CC1`, which activity, negative = inhibition is on record?
The activity, negative = inhibition was inactive: 12.5% [at 0.501 µM].

For `Cc1nn(C)cc1S(=O)(=O)Nc1ccccc1Br`, which Potency is on record?
Its Potency is inconclusive: 89.1 µM [inhibitor, single point].

With `COc1ccc(S(=O)(=O)N2CCC(C(=O)N[C@H](C(=O)N3CCCC3)C(C)C)CC2)cc1` as the molecule, how does the Potency read?
The Potency was “inactive”.

`CC1CN(C(=O)CCC(=O)NCc2ccccc2Cl)c2ccccc2S1` (centres undefined) was tested. Which Potency did it give?
Its Potency is “inactive”.

With `Cc1[nH]c2ccccc2c1/C=N/NC(=O)C1CC1(c1ccccc1)c1ccccc1` (centres undefined) as the molecule, how does the Potency read?
The Potency was inconclusive: 3.16 µM [inhibitor, partial curve, poor fit].

How did the Potency turn out when `Cc1cc(C)c(O)c(N)c1` was run?
The Potency was active: 2.24 µM.

With `CN(C)C(=O)CSc1ccc(S(=O)(=O)N2CCCC2)cn1` as the molecule, how does the Potency read?
The Potency was active: 56.2 µM.

`Cc1ccc(SCCCCN2CCNCC2)cc1` was tested. Which Potency did it give?
The Potency was active: 8.91 µM.

For `O=C(COc1ccc(S(=O)(=O)N2CCCC2)cc1)NCc1ccco1`, which Potency is on record?
The Potency was inconclusive: 25.1 µM [inhibitor, single point].

`CC(C)C(=O)Nc1sc2c(c1-c1nc3ccccc3[nH]1)CCCC2` was tested. Which Potency did it give?
Its Potency is active: 14.1 µM.

With `O=C(c1cc2ccc3cccnc3c2[nH]1)N1CCN(c2cccc(Cl)c2)CC1` as the molecule, how does the Potency read?
Its Potency is inconclusive: 28.2 µM [inhibitor, single point].

`CCOC(=O)Cc1csc(NC(=O)NC2(C(F)(F)F)Oc3ccc(Cl)cc3O2)n1` (centres undefined) was tested. Which Potency did it give?
The Potency was active: 25.1 µM.

Which Potency does the source give for `O=C1CC(c2ccc(F)cc2)CC(O)=C1C=NCCN1CCN(C(=O)Nc2ccccc2)CC1` (centres undefined) here?
The Potency was “inactive”.

For `C[C@@H]1CC[C@]2(C(=O)O)CC[C@]3(C)C(=CCC4[C@@]5(C)C[C@@H](O)[C@H](O)[C@@](C)(CO)C5CC[C@]43C)C2[C@H]1C` (some centres undefined), which Potency is on record?
The Potency was “inactive”.

Which Potency does the source give for `Cc1occc1-c1nnc(SCC(=O)N2c3ccccc3CCc3ccccc32)n1C` here?
The Potency was inconclusive: 1.41 µM [inhibitor, partial curve, poor fit].

Which Potency does the source give for `COc1ccc(C(=O)C(C)Oc2cccc(NC(=O)c3cccc([N+](=O)[O-])c3)c2)cc1` (centres undefined) here?
Its Potency is inconclusive: 79.4 µM [inhibitor, partial curve, poor fit].

Which Potency does the source give for `NC(=O)[C@@H]1CCCCNc2c(I)cc([N+](=O)[O-])cc2C(=O)N[C@@H](CCC(=O)O)C(=O)N[C@@H](CO)C(=O)N1` here?
The Potency was active: 39.8 µM.

For `Cc1ccc(-n2nc3c(=O)n(C(C)C(=O)NCc4ccccc4C)nc(C)c3c2C)cc1` (centres undefined), which Potency is on record?
Its Potency is “inactive”.

With `Cc1ccc2nc(Cl)c(/C=N/Nc3ccc(C(=O)O)cc3)cc2c1` as the molecule, how does the Potency read?
The Potency was active: 50.1 µM.
